{
  "source": "the supplement of paper PMC8728848",
  "binders": {"B1": {"name": "FBG5 (Homo sapiens), Q8NI29 (protein)", "chain": "MGASVSRGRAARVPAPEPEPEEALDLSQLPPELLLVVLSHVPPRTLLGRCRQVCRGWRALVDGQALWLLILARDHGATGRALLHLARSCQSPARNARPCPLGRFCARRPIGRNLIRNPCGQEGLRKWMVQHGGDGWVVEENRTTVPGAPSQTCFVTSFSWCCKKQVLDLEEEGLWPELLDSGRIEICVSDWWGARHDSGCMYRLLVQLLDANQTVLDKFSAVPDPIPQWNNNACLHVTHVFSNIKMGVRFVSFEHRGQDTQFWAGHYGARVTNSSVIVRVRLS"}},
  "assay_in_all_cases": "glycan array binding signal (z-score within array); higher = stronger binding",
  "settings_in_all_cases": "glycan notation: IUPAC condensed, linker removed",
  "key": {"[1]": {"biological_target": "GlcNAc(b1-4)[GlcNAc(b1-6)]GalNAc", "how_it_was_run": "(§1)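 Glycan array data were curated from 3228 arrays in the Consortium for Functional Glycomics database and kept only where the protein sequence was available. Glycan names were converted to IUPAC-condensed notation, and columns mapping to the same glycan were averaged. The binding signal is a within-array Z-score, averaged across arrays of the same protein sequence at different concentrations or buffers and across linkers. Negative Z-scores can be read as non-binding.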"}, "[2]": {"biological_target": "GlcNAc(b1-6)Gal(b1-4)GlcNAc", "how_it_was_run": "as §1"}, "GlcNAc(b1-6)GalNAc": {"biological_target": "GlcNAc(b1-6)GalNAc", "how_it_was_run": "as §1"}, "Kdn(a2-3)Gal(b1-3)GlcNAc": {"biological_target": "Kdn(a2-3)Gal(b1-3)GlcNAc", "how_it_was_run": "as §1"}, "Kdn(a2-3)Gal(b1-4)GlcNAc": {"biological_target": "Kdn(a2-3)Gal(b1-4)GlcNAc", "how_it_was_run": "as §1"}, "[3]": {"biological_target": "Man(a1-2)Man(a1-2)Man(a1-3)Man", "how_it_was_run": "as §1"}, "[4]": {"biological_target": "Man(a1-2)Man(a1-2)Man(a1-3)[Man(a1-2)Man(a1-3)[Man(a1-2)Man(a1-6)]Man(a1-6)]Man(b1-4)GlcNAc(b1-4)GlcNAc", "how_it_was_run": "as §1"}, "[5]": {"biological_target": "Man(a1-2)Man(a1-2)Man(a1-3)[Man(a1-2)Man(a1-6)[Man(a1-3)]Man(a1-6)]Man(b1-4)GlcNAc(b1-4)GlcNAc", "how_it_was_run": "as §1"}, "[6]": {"biological_target": "Man(a1-2)Man(a1-2)Man(a1-6)[Man(a1-3)]Man", "how_it_was_run": "as §1"}, "Man(a1-2)Man(a1-3)Man": {"biological_target": "Man(a1-2)Man(a1-3)Man", "how_it_was_run": "as §1"}, "[7]": {"biological_target": "Man(a1-2)Man(a1-3)[Man(a1-2)Man(a1-6)]Man", "how_it_was_run": "as §1"}, "[8]": {"biological_target": "Man(a1-2)Man(a1-3)[Man(a1-3)[Man(a1-6)]Man(a1-6)]Man(b1-4)GlcNAc(b1-4)GlcNAc", "how_it_was_run": "as §1"}, "[9]": {"biological_target": "Man(a1-2)Man(a1-3)[Man(a1-6)]Man(a1-6)[Man(a1-2)Man(a1-3)]Man(b1-4)GlcNAc(b1-4)GlcNAc", "how_it_was_run": "as §1"}, "Man(a1-3)[Man(a1-6)]Man": {"biological_target": "Man(a1-3)[Man(a1-6)]Man", "how_it_was_run": "as §1"}, "[10]": {"biological_target": "Man(a1-3)[Man(a1-6)]Man(a1-6)[Man(a1-3)]Man(b1-4)GlcNAc(b1-4)GlcNAc", "how_it_was_run": "as §1"}, "[11]": {"biological_target": "Man(a1-3)[Man(a1-6)]Man(b1-4)GlcNAc(b1-4)GlcNAc", "how_it_was_run": "as §1"}, "Man(b1-4)GlcNAc": {"biological_target": "Man(b1-4)GlcNAc", "how_it_was_run": "as §1"}, "Neu5Ac(a2-3)Gal": {"biological_target": "Neu5Ac(a2-3)Gal", "how_it_was_run": "as §1"}, "[12]": {"biological_target": "Neu5Ac(a2-3)Gal(b1-3)GalNAc", "how_it_was_run": "as §1"}, "[13]": {"biological_target": "Neu5Ac(a2-3)Gal(b1-3)GalNAc(b1-3)Gal(a1-4)Gal(b1-4)Glc", "how_it_was_run": "as §1"}, "[14]": {"biological_target": "Neu5Ac(a2-3)Gal(b1-3)GalNAc(b1-4)[Neu5Ac(a2-3)]Gal(b1-4)Glc", "how_it_was_run": "as §1"}, "[15]": {"biological_target": "Neu5Ac(a2-3)Gal(b1-3)GalNAc6S", "how_it_was_run": "as §1"}, "[16]": {"biological_target": "Neu5Ac(a2-3)Gal(b1-3)GlcNAc", "how_it_was_run": "as §1"}, "[17]": {"biological_target": "Neu5Ac(a2-3)Gal(b1-3)GlcNAc(b1-3)Gal(b1-4)GlcNAc", "how_it_was_run": "as §1"}, "[18]": {"biological_target": "Neu5Ac(a2-3)Gal(b1-3)GlcNAc6S", "how_it_was_run": "as §1"}, "[19]": {"biological_target": "Neu5Ac(a2-3)Gal(b1-3)[Fuc(a1-4)]GlcNAc", "how_it_was_run": "as §1"}, "[20]": {"biological_target": "Neu5Ac(a2-3)Gal(b1-3)[Fuc(a1-4)]GlcNAc(b1-3)Gal(b1-4)[Fuc(a1-3)]GlcNAc", "how_it_was_run": "as §1"}, "[21]": {"biological_target": "Neu5Ac(a2-3)Gal(b1-3)[Neu5Ac(a2-3)Gal(b1-4)]GlcNAc", "how_it_was_run": "as §1"}, "[22]": {"biological_target": "Neu5Ac(a2-3)Gal(b1-3)[Neu5Ac(a2-6)]GalNAc", "how_it_was_run": "as §1"}, "Neu5Ac(a2-3)Gal(b1-4)Glc": {"biological_target": "Neu5Ac(a2-3)Gal(b1-4)Glc", "how_it_was_run": "as §1"}, "[23]": {"biological_target": "Neu5Ac(a2-3)Gal(b1-4)GlcNAc", "how_it_was_run": "as §1"}, "[24]": {"biological_target": "Neu5Ac(a2-3)Gal(b1-4)GlcNAc(b1-3)Gal(b1-4)GlcNAc", "how_it_was_run": "as §1"}, "[25]": {"biological_target": "Neu5Ac(a2-3)Gal(b1-4)GlcNAc(b1-3)Gal(b1-4)GlcNAc(b1-3)Gal(b1-4)GlcNAc", "how_it_was_run": "as §1"}, "[26]": {"biological_target": "Neu5Ac(a2-3)Gal(b1-4)GlcNAc(b1-3)Gal(b1-4)[Fuc(a1-3)]GlcNAc", "how_it_was_run": "as §1"}},
  "note": "This is one part of the list.",
  "data": [
    {"binder": "B1", "values": [
      {"measurement": "glycan array binding signal (z-score)", "setting": "[1]", "result": -0.211},
      {"measurement": "glycan array binding signal (z-score)", "setting": "[2]", "result": -0.14},
      {"measurement": "glycan array binding signal (z-score)", "setting": "GlcNAc(b1-6)GalNAc", "result": -0.261},
      {"measurement": "glycan array binding signal (z-score)", "setting": "Kdn(a2-3)Gal(b1-3)GlcNAc", "result": -0.195},
      {"measurement": "glycan array binding signal (z-score)", "setting": "Kdn(a2-3)Gal(b1-4)GlcNAc", "result": -0.131},
      {"measurement": "glycan array binding signal (z-score)", "setting": "[3]", "result": -0.141},
      {"measurement": "glycan array binding signal (z-score)", "setting": "[4]", "result": -0.225},
      {"measurement": "glycan array binding signal (z-score)", "setting": "[5]", "result": -0.066},
      {"measurement": "glycan array binding signal (z-score)", "setting": "[6]", "result": -0.184},
      {"measurement": "glycan array binding signal (z-score)", "setting": "Man(a1-2)Man(a1-3)Man", "result": -0.075},
      {"measurement": "glycan array binding signal (z-score)", "setting": "[7]", "result": -0.203},
      {"measurement": "glycan array binding signal (z-score)", "setting": "[8]", "result": -0.018},
      {"measurement": "glycan array binding signal (z-score)", "setting": "[9]", "result": -0.112},
      {"measurement": "glycan array binding signal (z-score)", "setting": "Man(a1-3)[Man(a1-6)]Man", "result": -0.131},
      {"measurement": "glycan array binding signal (z-score)", "setting": "[10]", "result": 0.012},
      {"measurement": "glycan array binding signal (z-score)", "setting": "[11]", "result": 0.004},
      {"measurement": "glycan array binding signal (z-score)", "setting": "Man(b1-4)GlcNAc", "result": -0.205},
      {"measurement": "glycan array binding signal (z-score)", "setting": "Neu5Ac(a2-3)Gal", "result": -0.211},
      {"measurement": "glycan array binding signal (z-score)", "setting": "[12]", "result": -0.098},
      {"measurement": "glycan array binding signal (z-score)", "setting": "[13]", "result": -0.209},
      {"measurement": "glycan array binding signal (z-score)", "setting": "[14]", "result": -0.147},
      {"measurement": "glycan array binding signal (z-score)", "setting": "[15]", "result": -0.234},
      {"measurement": "glycan array binding signal (z-score)", "setting": "[16]", "result": -0.161},
      {"measurement": "glycan array binding signal (z-score)", "setting": "[17]", "result": -0.162},
      {"measurement": "glycan array binding signal (z-score)", "setting": "[18]", "result": -0.16},
      {"measurement": "glycan array binding signal (z-score)", "setting": "[19]", "result": -0.208},
      {"measurement": "glycan array binding signal (z-score)", "setting": "[20]", "result": -0.077},
      {"measurement": "glycan array binding signal (z-score)", "setting": "[21]", "result": -0.218},
      {"measurement": "glycan array binding signal (z-score)", "setting": "[22]", "result": -0.112},
      {"measurement": "glycan array binding signal (z-score)", "setting": "Neu5Ac(a2-3)Gal(b1-4)Glc", "result": -0.221},
      {"measurement": "glycan array binding signal (z-score)", "setting": "[23]", "result": -0.245},
      {"measurement": "glycan array binding signal (z-score)", "setting": "[24]", "result": -0.222},
      {"measurement": "glycan array binding signal (z-score)", "setting": "[25]", "result": -0.186},
      {"measurement": "glycan array binding signal (z-score)", "setting": "[26]", "result": -0.031}
    ]}
  ]
}
